Out of some 45,000 compounds screened, about 65 (0.1%) were called active. The call rests on the fitted dose curve; in most records, active means well fitted activation curve with a large enough effect; inconclusive means small, poorly fitted or top-dose-only effect; inactive means no such curve, though single readings can be large or run the other way. Some of the results follow.
target: Galactocerebrosidase (Homo sapiens) (UniProt P54803); assay: A Novel Cell-Based Assay to Identify Small Molecules for B -Galactocerebrosidase; conditions: 145M-Twi-hGALC-G270D cells (Twitcher mouse brain line with human GALC G270D), HMU-beta-Gal fluorescence, 48 h; series mostly up to 57.5 µM; activation: at the top concentration; further: 0% is about no effect; nearly all actives have a fitted effect of over 65% in size
Procedure, shortened: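 Fluorescence readout: HMU-β-gal cleavage by mutant GALC (0.1 mM final, citrate/phosphate pH 5.2 with 1 mg/mL taurocholate), stopped with carbonate/bicarbonate plus Triton X-100. Cells: murine Twitcher 145M-Twi expressing human G270D GALC; qHTS for activators.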

Sequence of UniProt P54803 (P54803 whole entry, looked up): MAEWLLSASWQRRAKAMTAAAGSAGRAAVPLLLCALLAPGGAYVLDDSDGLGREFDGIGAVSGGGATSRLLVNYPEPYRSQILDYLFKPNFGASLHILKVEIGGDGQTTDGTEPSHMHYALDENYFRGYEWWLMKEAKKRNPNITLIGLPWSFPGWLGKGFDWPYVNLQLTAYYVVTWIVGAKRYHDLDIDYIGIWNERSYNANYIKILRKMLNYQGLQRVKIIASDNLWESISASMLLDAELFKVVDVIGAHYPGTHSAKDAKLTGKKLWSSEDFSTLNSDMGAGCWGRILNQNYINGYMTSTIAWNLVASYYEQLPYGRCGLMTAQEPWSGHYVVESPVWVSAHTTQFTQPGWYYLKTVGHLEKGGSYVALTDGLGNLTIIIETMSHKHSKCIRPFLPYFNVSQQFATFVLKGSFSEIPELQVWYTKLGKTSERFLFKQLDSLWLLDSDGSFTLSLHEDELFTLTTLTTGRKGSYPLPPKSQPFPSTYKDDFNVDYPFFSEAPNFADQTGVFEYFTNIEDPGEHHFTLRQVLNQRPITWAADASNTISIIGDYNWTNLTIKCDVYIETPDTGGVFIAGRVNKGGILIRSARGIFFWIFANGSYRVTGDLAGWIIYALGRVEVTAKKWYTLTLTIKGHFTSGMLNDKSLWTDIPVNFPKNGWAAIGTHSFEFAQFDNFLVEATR

activation, inactive:
COc1ccc(-c2nc(SCC(=O)Nc3ccc4c(c3)OCCO4)c(-c3ccc(C)cc3)[nH]2)cc1OC -12.8%
Cc1ccccc1Nc1c(-c2ccc(N3CCOCC3)cc2)nc2ccccn12 -15.8%
CC(N=C(NC#N)Nc1ccncc1)C(C)(C)C (configuration not stated) -13.8%
CC(C)NC(=O)c1nn(-c2ccccc2F)nc1CO -11.6%
COc1ccc(NC(=O)CSc2ccc3nc(-c4ccccc4)cn3n2)cc1OC -7.09%
Cc1ccc(C(=O)NC2=NC(c3ccc(C)cc3)CC(=O)N2)cc1 (configuration not stated) -13.5%
CC(=O)OCC(=O)[C@@]1(OC(C)=O)[C@@H](C)C[C@H]2[C@@H]3C[C@H](F)C4=CC(=O)C=C[C@]4(C)[C@@]3(F)[C@@H](O)C[C@@]21C -6.44%
Cc1cc(C)cc(NC(=O)CSc2nc(-c3ccccc3)c3cc(F)ccc3n2)c1 -12.9%
Cc1ccc2c(c1)-c1ncc(C(=O)c3ccccc3O)cc1CO2 -1.77%
CCCCCOC(=O)CSc1ncnc2sc3c(c12)CCC(C)C3 (configuration not stated) -20.7%
CC(=O)c1ccc(NC(=O)c2cc3sccc3n2Cc2ccc(F)cc2)cc1 -13.1%
Cc1cc(C)cc(NC(=O)c2cc(CN3CCCC3)on2)c1 -16.6%
CCCCOC(=O)CC(CC(=O)OCCCC)(OC(C)=O)C(=O)OCCCC -9.32%
O=C(Cn1nc(C(F)(F)F)c2c1CCCC2)Nc1ccc(Br)cc1 -11.1%
COc1cccc(CNC(=O)COc2cc(=O)n(C)c3ccccc23)c1 -10.3%
Cc1ccc(-n2nnnc2CNC(=O)c2cc(C(F)(F)F)cc(C(F)(F)F)c2)cc1C 6.94%
O=C(Nc1cccc(C(F)(F)F)c1)c1cc(CN2CCOCC2)on1 -13.3%
COc1ccc(-n2ncc3c(NC4CCCC4)ncnc32)cc1 -7.38%
COc1ccc(S(=O)(=O)Nc2ccc(-c3cn4c(C)csc4n3)cc2)cc1 -7.91%
COc1ccccc1S(=O)(=O)Cc1ccc(C(=O)NCc2ccc(Cl)cc2)o1 -9.14%
Cc1ccc(N2CCN(S(=O)(=O)c3cccc4ccccc34)CC2)cc1Cl -10.1%
COC(=O)c1ccc(NC(=O)CCn2cnnn2)cc1 -8.66%
CCOc1ccccc1CNCc1cccn1-c1nnc(N2CCN(c3ccccc3)CC2)s1 -35.9%
CCN(CCCNC(=O)c1nn(-c2ccc(OC)cc2)c(=O)c2c1c1ccccc1n2C)c1ccccc1 -2.53%
Cc1c(Cl)cccc1-n1ncc(C(=O)Nc2ccc(Br)cc2F)c1C1CCNCC1 -13.6%
CC(=O)c1c(C)oc2c1cc(NS(=O)(=O)c1ccc(Br)cc1)c1ccccc12 -11.2%
CCCCNC(=O)c1ccc2c(c1)ncn2-c1cc(OC)ccc1OC -6%
CCCNc1ccc(-c2nc(-c3ccccn3)no2)cc1[N+](=O)[O-] -8.81%
O=C(Nc1ccccc1F)c1ccc2c(Cl)c3c(nc2c1)CCC3 -13.8%
COC(=O)c1ccc(NC(=O)c2nc(-c3ccc(Cl)cc3)n3c2CCCCC3)cc1 -19.1%
CCc1cccc(NC(=O)CCNS(=O)(=O)c2cccc3nonc23)c1 -23.7%
COc1ccccc1NC(=O)C1=C(C)Nc2nnnn2C1c1ccc(C(F)(F)F)cc1 (configuration not stated) -7.82%
COc1cc(NC(=O)N2c3ccccc3Sc3ccccc32)cc(OC)c1 -6%
O=C(CSc1nccn1-c1ccc(Cl)cc1)Nc1ccc(Cl)c(Cl)c1 -12.6%
CCOC(=O)N1CCc2c(sc3c2c(=O)n(CCc2ccccc2)c(=O)n3CC(=O)Nc2ccc(C)cc2)C1 -3.42%
CC(C)(C)CC(=O)NCC(c1ccc2c(c1)OCO2)N1CCN(c2ccccc2)CC1 (configuration not stated) -6.54%
CC(=O)c1ccc(NC(=O)c2cc(-c3ccc(C)s3)nc3ccccc23)cc1 -8.33%
CCC(C)NC(=O)Cn1c(=O)n(CCCCCC(=O)NCc2ccccc2Cl)c(=O)c2sccc21 (configuration not stated) 2.94%
O=C(NCc1cccc(Br)c1)c1cnn(-c2ccc(F)cc2)c1-n1cccc1 -43%
Cc1cccc(N2CCN(C(=O)CN3C(=O)CSc4c3c(C)nn4-c3ccccc3)CC2)c1C -4.73%
CN1CCc2c(sc(NC(=O)CSc3ccccc3)c2-c2nc3ccccc3s2)C1 -18.9%
CCCOC(=O)c1c(NC(=O)C(C)Sc2nc(-c3ccccc3)cc(C(F)(F)F)n2)sc(C(=O)N(C)C)c1C (configuration not stated) -2.11%
COc1ccccc1C(=O)NCC(c1cccnc1)N1CCc2ccccc2C1 (configuration not stated) -12.7%
CCOC(=O)c1ccc(NC(=O)CSc2ccc3ccccc3n2)cc1 -5.83%
CCCN(CCC)CCCNC(=O)c1cc2c(-c3ccc(OC)c(OC)c3)nn(C)c2s1 -1.21%
CCOc1ccc(N2CC(NC(=O)c3cccs3)CC2=O)cc1 (configuration not stated) -9.62%
CN(C)CCNC(=O)C1CCN(Cc2cc3ccccc3n2Cc2ccccc2)CC1 -1.93%
CCOc1ccc(S(=O)(=O)c2c(C(=O)c3ccc(CC)cc3)cnc3ccc(C)cc23)cc1 -25.2%
CCc1ccc(NC(=O)[C@H](Cc2ccccc2)N2Cc3ccccc3C2=O)cc1 -20.3%
COc1cc(NC(=O)CCc2c(C)nn(-c3ccc4nnc(C)n4n3)c2C)cc(OC)c1OC -6.72%
Cc1ccc(S(=O)(=O)n2nc(-c3ccccc3)nc2NCc2ccc(Cl)cc2)cc1 5.23%
O=C(CSc1nc2c([nH]c3ccccc32)c(=O)n1-c1ccccc1)N1CCc2ccccc21 -0.413%
O=C1CC(c2nc(-c3ccc(Cl)cc3)no2)CN1c1ccc2c(c1)OCCO2 (configuration not stated) -5.97%
CCC(=O)N1CCc2cc(S(=O)(=O)CCC(=O)N3CCN(c4ccc(Cl)cc4)CC3)ccc21 -10.1%
COc1ccc(NC(=O)c2c(NCc3sccc3C)sc3c2CCCC3)c(OC)c1 -11.6%
CCc1nn2c(=O)cc(COC(=O)CNC(=O)COc3ccc(C)cc3)nc2s1 8.61%
CCCn1c(=O)sc2cc(NC(=O)c3ccc(OC)c(Br)c3)ccc21 -1.45%
CCCOc1ccc(CN(C(=O)Cc2coc3ccc(CC)cc23)C2CCS(=O)(=O)C2)cc1 (configuration not stated) -18.9%
CC(C)CC(NS(=O)(=O)c1ccc2c(c1)oc(=O)n2C)C(=O)NCc1ccccc1Cl (configuration not stated) 1.66%
Cc1ccc(-n2nc(CO)c(C(=O)NC(C)CCCc3ccccc3)n2)cc1 (configuration not stated) -7.84%
COc1ccc(Nc2nc(N)nc(N)c2S(=O)(=O)c2ccccc2)cc1 -14.2%
Cc1cn(C)c(CC(=O)N2CCN(c3cccc(Cl)c3)CC2)c1C(=O)O -10.4%

— PubChem BioAssay AID1159614 (National Center for Advancing Translational Sciences (NCATS), 2016)
